Source: PubChem BioAssay AID1347165 (National Center for Advancing Translational Sciences (NCATS), 2019)
Among all 220,000 compounds or so, about 5,700 (2.6%) were called active. The shares of active, inactive and inconclusive entries below differ from those in the screen. Calls come from the whole dose curve; as a rule, active = well fitted inhibition curve with a large enough effect; inconclusive = small, poorly fitted or top-dose-only effect; inactive = no such curve, though single readings can be large or run the other way. Where the call is inconclusive, the potency comes from a doubtful curve fit.

Biological target: Lysine-specific demethylase 5B (Homo sapiens) (UniProt Q9UGL1)
Experiment: Primary screen for KDM5B Histone Demethylases FDH-coupled qHTS; note: nearly all actives have a fitted effect of over 70% in size; for activity change, negative = inhibition: 0% is about no effect
Conditions: FDH-coupled NADH fluorescence (FDH is formaldehyde dehydrogenase); activity change, negative = inhibition: at 57.7 µM (top of the series) unless noted
Method in brief: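 Here, H3K4me3 peptide (12.5 µM in substrate mix) is demethylated by KDM5BΔAP, 200 nM final, after 10 min compound exposure. Formaldehyde product is coupled through FDH (0.25 U/mL in mix) to NADH fluorescence; 30-min ΔRFU feeds dose-response curves.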
Potency is the fitted concentration of half-maximal effect; tags give direction and shape of the fitted curve.

Sequence of UniProt Q9UGL1 (Q9UGL1 whole entry, looked up): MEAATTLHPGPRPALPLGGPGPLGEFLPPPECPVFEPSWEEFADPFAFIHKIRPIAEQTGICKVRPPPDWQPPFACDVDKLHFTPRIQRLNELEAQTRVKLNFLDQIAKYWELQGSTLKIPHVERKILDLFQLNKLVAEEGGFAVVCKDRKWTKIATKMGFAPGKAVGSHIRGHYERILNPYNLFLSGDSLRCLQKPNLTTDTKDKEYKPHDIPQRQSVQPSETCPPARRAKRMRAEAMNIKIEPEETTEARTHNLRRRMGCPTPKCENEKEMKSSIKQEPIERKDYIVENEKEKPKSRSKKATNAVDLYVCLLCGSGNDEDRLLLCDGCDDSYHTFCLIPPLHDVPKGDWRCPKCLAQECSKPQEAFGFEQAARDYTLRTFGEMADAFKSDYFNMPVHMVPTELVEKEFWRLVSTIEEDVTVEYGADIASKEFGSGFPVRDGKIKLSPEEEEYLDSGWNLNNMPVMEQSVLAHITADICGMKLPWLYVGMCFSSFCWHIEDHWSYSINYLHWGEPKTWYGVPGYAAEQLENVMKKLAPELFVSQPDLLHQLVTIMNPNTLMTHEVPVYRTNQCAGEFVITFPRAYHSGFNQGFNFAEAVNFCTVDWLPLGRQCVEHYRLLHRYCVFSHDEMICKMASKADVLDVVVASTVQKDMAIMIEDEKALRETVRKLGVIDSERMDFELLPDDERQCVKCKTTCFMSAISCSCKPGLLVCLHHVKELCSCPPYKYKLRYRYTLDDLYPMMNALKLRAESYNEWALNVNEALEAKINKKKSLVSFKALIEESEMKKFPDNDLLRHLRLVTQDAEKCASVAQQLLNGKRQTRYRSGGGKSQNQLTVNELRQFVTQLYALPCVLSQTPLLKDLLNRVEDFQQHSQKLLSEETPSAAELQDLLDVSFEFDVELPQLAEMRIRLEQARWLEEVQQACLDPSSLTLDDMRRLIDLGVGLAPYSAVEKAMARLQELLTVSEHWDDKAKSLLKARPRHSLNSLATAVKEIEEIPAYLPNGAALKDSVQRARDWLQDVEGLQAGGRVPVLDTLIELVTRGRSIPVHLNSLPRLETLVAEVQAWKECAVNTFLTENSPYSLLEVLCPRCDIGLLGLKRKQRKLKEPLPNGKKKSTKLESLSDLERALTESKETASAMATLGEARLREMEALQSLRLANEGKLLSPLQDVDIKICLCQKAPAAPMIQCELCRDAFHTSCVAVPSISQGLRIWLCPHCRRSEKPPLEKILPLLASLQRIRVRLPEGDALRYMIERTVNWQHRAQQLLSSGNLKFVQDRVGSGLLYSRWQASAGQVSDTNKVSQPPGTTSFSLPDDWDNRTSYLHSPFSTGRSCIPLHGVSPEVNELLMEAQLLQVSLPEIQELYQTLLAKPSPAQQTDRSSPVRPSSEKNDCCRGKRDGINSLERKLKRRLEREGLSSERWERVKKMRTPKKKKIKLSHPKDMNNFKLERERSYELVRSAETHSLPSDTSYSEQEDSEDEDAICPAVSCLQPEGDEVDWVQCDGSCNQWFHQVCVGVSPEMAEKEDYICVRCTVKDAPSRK

| SMILES | Potency | activity change, negative = inhibition |
| --- | --- | --- |
| CCOC(=O)c1c(C)oc(NC(=O)c2cc(-c3ccc(OC)cc3)on2)c1C#N | inactive | – |
| Cc1ccc(NC(=O)CCc2c(C)nc3cc(-c4ccccc4)nn3c2C)cc1F | – | inconclusive: -35.6% [inhibitor] |
| COc1ccc(-c2nc3c(C#N)c[nH]n3c2NC2CCCC2)c(OC)c1 | inconclusive: 15.8 µM [inhibitor, partial curve, poor fit] | – |
| N#Cc1cccc(C(=O)Nc2ccc(Cl)c(C(F)(F)F)c2)c1 | inconclusive: 28.2 µM [inhibitor, single point] | – |
| CC(=O)c1[nH]c2ccccc2c1C | inactive | – |
| CN(Cc1ccccc1)C(=O)c1cn2ccnc(-c3ccccc3)c2n1 | inconclusive: 11.2 µM [inhibitor, partial curve] | – |
| CC1(C(=O)NCc2ccncc2)CN(Cc2ccccc2)Cc2ccc(N3CCOCC3)nc21 (configuration not stated) | inconclusive: 22.4 µM [inhibitor, single point] | – |
| COc1ccc(Cn2ccc3nc(C)c(C(=O)NCc4ccc(F)cc4)cc3c2=O)cc1 | inconclusive: 31.6 µM [inhibitor, partial curve, poor fit] | – |
| CN(C)C(=O)COC(=O)c1cc(-c2ccc(Cl)s2)nc2ccccc12 | inconclusive: 25.1 µM [inhibitor, partial curve, poor fit] | – |
| Cc1ccc(NC(C)C(=O)Nc2sccc2C#N)cc1 (configuration not stated) | inactive | – |
| CC(C)c1noc(-c2cccn3c(CNC(=O)c4c(F)cccc4Cl)nnc23)n1 | active: 15.8 µM | – |
| Cc1ccc(CNC(=O)CSc2n[nH]c(-c3ccc(F)cc3)n2)cc1 | inconclusive: 25.1 µM [inhibitor, single point] | – |
| CCCn1nc(NC(=O)CC(C)C)c2cc3cccc(C)c3nc21 | inconclusive: 35.5 µM [inhibitor, partial curve, poor fit] | – |
| Cc1cc(C(=O)CSc2ccccc2Br)c(C)[nH]1 | inconclusive: 15.8 µM [inhibitor, partial curve, poor fit] | – |
| COc1ccc(-n2nc(C3CCN(CCC(C)C)CC3)[nH]c2=O)cc1 | inconclusive: 3.16 µM [inhibitor, single point] | – |
| Cc1ccc(Cl)cc1N1CCN(Cc2nnc(-c3ccc4c(c3)OCO4)o2)CC1 | inconclusive: 22.4 µM [inhibitor, partial curve, poor fit] | – |
| Cn1cc(CN2CCOC[C@H]2c2ncc(-c3ccc(F)cc3F)[nH]2)c2ccccc21 | inactive | – |
| O=C(Cn1nc2c(cc1=O)CCCCC2)Nc1ccc(F)cc1 | inactive | – |
| O=C(Cn1c2c(c(=O)n1Cc1ccccc1)CCN(Cc1ccccc1)C2)N1CCC(c2ccccc2)CC1 | inconclusive: 31.6 µM [inhibitor, single point] | – |
| Cc1cc(=O)n(CC(=O)NCc2ccc3c(c2)OCO3)c(N2CCc3ccccc3C2)n1 | inconclusive: 14.1 µM [inhibitor, partial curve] | – |
| CC(OC(=O)C12CC3CC(CC(C3)C1)C2)C(N)=O (configuration not stated) | inactive | – |
| CCN(CC)C(=O)c1csc(-c2cccc(OC(C)C)c2)n1 | inconclusive: 25.1 µM [inhibitor, partial curve] | – |
| Cc1cccc(Cn2c(N3CCN(c4ccccn4)CC3)nc3c2c(=O)n(C)c(=O)n3C)c1 | inconclusive: 39.8 µM [inhibitor, partial curve, poor fit] | – |

| SMILES | Potency | activity change, negative = inhibition |
| --- | --- | --- |
| CN1c2ncccc2CN(Cc2ccccc2O)CC[C@H]1CO | inconclusive: 31.6 µM [inhibitor, single point] | – |
| O=C(NCCc1ccccc1Cl)c1ccc2c(c1)nc1n2CCCCC1 | inconclusive: 39.8 µM [inhibitor, single point] | – |
| O=C1NCCCCCN(Cc2cccnc2)[C@@H]2CN(C(=O)C3CCCCC3)CC[C@@H]12 | inconclusive: 39.8 µM [inhibitor, partial curve, poor fit] | – |
| Cc1ccc(-n2cccc2C=O)cc1Cl | inactive | – |
| Cc1ccc(CNC(=O)c2ccc3c(c2)CN(Cc2cc(F)c(F)c(F)c2)CCO3)cc1 | inactive | – |
| O=C(N[C@H]1CO[C@H]2[C@@H]1OC[C@@H]2Nc1nccc(-c2cccc(F)c2)n1)c1cccs1 | active: 35.5 µM | – |
| Cc1ccc(C)c(Cn2c(C3CC(=O)N(c4ccccc4C)C3)nc3ccccc32)c1 (configuration not stated) | inconclusive: 28.2 µM [inhibitor, single point] | – |
| CCOc1ccccc1C(=O)N1CCN(c2cc(-c3ccc(F)cc3)[nH]n2)CC1 | inactive | – |
| Cc1ccc(CNC(=O)Cn2ccn3nc4c(c3c2=O)CCCCC4)cc1 | active: 5.62 µM | – |
| COc1ccc(S(=O)(=O)N2CCN(C(=O)c3csc(C)n3)CC2)cc1 | inactive | – |
| CCN(CC)c1ccc(NS(=O)(=O)c2cc3[nH]c(=O)c(=O)[nH]c3cc2C)c(C)c1 | inconclusive: 22.4 µM [inhibitor, partial curve, poor fit] | – |
| O=S(=O)(c1ccccc1Cl)N1CCn2cccc2C1c1ccccc1F (configuration not stated) | inconclusive: 39.8 µM [inhibitor, partial curve, poor fit] | – |
| COc1cccc(C(=O)N2CCC(N3C[C@H](O)C[C@H]3C(=O)N3CCc4ccccc43)CC2)c1 | inactive | – |
| CCN(CC)c1ccc(NC(=O)CSc2nc(-c3cccs3)cc(C(F)(F)F)n2)cc1 | inconclusive: 15.8 µM [inhibitor, partial curve, poor fit] | – |
| COCC(=O)NC1CCC12CCN(C(=O)c1cccc3[nH]ccc13)CC2 (configuration not stated) | inconclusive: 28.2 µM [inhibitor, partial curve, poor fit] | – |
| Cc1ccc(NC(=O)Nc2nnc(N(C)Cc3ccccc3)s2)c(C)c1 | inactive | – |
| COCCCNC(=O)c1cc(-c2ccccc2)nc2ccc(C)cc12 | inconclusive: 1.78 µM [inhibitor, full curve, poor fit] | – |
| COc1ccc(-c2cc(C(=O)NCCC(=O)N3CCCC3)c3ccccc3n2)cc1OC | inactive | – |
| CN1Cc2cccn2CC1CNC(=O)Cc1cccc(F)c1 (configuration not stated) | active: 28.2 µM | – |
| Cc1cccc(C)c1NC(=O)CN1CCN(Cc2nc3ccccc3o2)CC1 | inactive | – |
| Cc1ccccc1C(=O)N[C@@H]1CN(S(C)(=O)=O)C[C@H]1CN(C)C | inactive | – |
| Cc1ccc(-c2nc(C)c(CCNS(=O)(=O)c3ccc(F)c(C(F)(F)F)c3)s2)cc1 | inconclusive: 31.6 µM [inhibitor, partial curve, poor fit] | – |
| C[C@H]1[C@@H]2[C@@H](O)C([C@H](C)C(=O)N3CCCCC3)CC[C@@]2(C)CC[C@@H]1NC(=O)c1ccccn1 (some centres not stated) | inactive | – |

| SMILES | Potency | activity change, negative = inhibition |
| --- | --- | --- |
| COc1ncccc1-c1ncc2c(n1)OCCN(Cc1ccccc1)C2=O | inconclusive: 31.6 µM [inhibitor, single point] | – |
| COc1ccc(CNc2oc(-c3ccc(COc4ccccc4C)o3)nc2C#N)cc1 | inconclusive: 28.2 µM [inhibitor, partial curve, poor fit] | – |
| Cc1ccc2[nH]cc(C(C(=O)O)N3CCN(c4nsc5ccccc45)CC3)c2c1 (configuration not stated) | inconclusive: 25.1 µM [inhibitor, single point] | – |
| NC1CCc2nn(CC(=O)N3CCCN(c4ncccn4)CC3)c(=O)n2CC1 (configuration not stated) | active: 28.2 µM | – |
| O=c1cc(-c2ccccc2)n2c(SCc3ccc(F)cc3)nnc2[nH]1 | inconclusive: 35.5 µM [inhibitor, single point] | – |
| CCC(=O)c1ccc(Oc2cc(C#N)c(C#N)cc2N2CCOCC2)cc1 | inactive | – |
| COCCNC(=O)C(NC(=O)c1ccccc1Cl)C1CCN(C(=O)c2ccccc2)CC1 (configuration not stated) | inconclusive: 28.2 µM [inhibitor, single point] | – |
| Cc1cc(C(=O)OCC(=O)Nc2ccc(C)c(F)c2)c2ccccc2n1 | inactive | – |
| O=C1CCN(S(=O)(=O)c2ccccc2)CCCC(C(=O)NCCN2CCCC2)CCN1 (configuration not stated) | inconclusive: 17.8 µM [inhibitor, partial curve, poor fit] | – |
| COc1ccc(CNC(=O)c2cc(-c3ccc(OC)cc3)nc3ccccc23)cc1 | inconclusive: 14.1 µM [inhibitor, partial curve, poor fit] | – |
| O=C(CC1CCCC1)N1CCN(Cc2ccc(=O)n(CC3CC3)c2)CC1 | inconclusive: 22.4 µM [inhibitor, partial curve] | – |
| COc1cccc(N2CCN(C(=O)Cn3c(-c4cccs4)cc4ccccc43)CC2)c1 | inconclusive: 25.1 µM [inhibitor, partial curve, poor fit] | – |
| COCC1CN(C)CC12CCN(C(=O)CCc1ccccc1OC)CC2 (configuration not stated) | inconclusive: 25.1 µM [inhibitor, partial curve, poor fit] | – |
| O=C(NCc1ccc(Cl)nc1)c1cnn2c1CN(C(=O)c1ccccc1)CC2 | inactive | – |
| Cc1nnc(N2CCCC(C(=O)NCCc3ccc(Cl)cc3)C2)c2nn(-c3ccccc3)c(C)c12 (configuration not stated) | inconclusive: 7.08 µM [inhibitor, partial curve, poor fit] | – |
| CCN1c2cc(C(=O)Nc3cccc(Cl)c3)ccc2C(=O)N2CCCC21 (configuration not stated) | inconclusive: 28.2 µM [inhibitor, partial curve, poor fit] | – |
| O=C(Nc1ccc(-c2cn3cccnc3n2)cc1)c1cc(Br)ccc1Cl | inconclusive: 31.6 µM [inhibitor, single point] | – |
| N#Cc1nc(-c2ccc([N+](=O)[O-])cc2)oc1N1CCCC1 | inactive | – |
| COc1ccc(C(=O)Nc2ccc3oc(-c4ccccc4C)nc3c2)cc1 | inactive | – |
| CC1CCN(C(CNC(=O)Cn2c(=O)c3c(ncn3C)n(C)c2=O)c2cccs2)CC1 (configuration not stated) | inactive | – |
| COc1cccc(C(=O)Nc2cccc(-c3cn4c(C)csc4n3)c2)c1OC | inconclusive: 25.1 µM [inhibitor, partial curve, poor fit] | – |
